From the supplement of paper PMC3334620 come the findings set out here.

Over roughly 33,000 sequences, “E-score (-0.5 to 0.5)” has its median near -0.035; the highest 2% begin near 0.35. The list shows a part of the results.

The experiment addresses T1, Pdr3 (UniProt P33200).
T1 sequence: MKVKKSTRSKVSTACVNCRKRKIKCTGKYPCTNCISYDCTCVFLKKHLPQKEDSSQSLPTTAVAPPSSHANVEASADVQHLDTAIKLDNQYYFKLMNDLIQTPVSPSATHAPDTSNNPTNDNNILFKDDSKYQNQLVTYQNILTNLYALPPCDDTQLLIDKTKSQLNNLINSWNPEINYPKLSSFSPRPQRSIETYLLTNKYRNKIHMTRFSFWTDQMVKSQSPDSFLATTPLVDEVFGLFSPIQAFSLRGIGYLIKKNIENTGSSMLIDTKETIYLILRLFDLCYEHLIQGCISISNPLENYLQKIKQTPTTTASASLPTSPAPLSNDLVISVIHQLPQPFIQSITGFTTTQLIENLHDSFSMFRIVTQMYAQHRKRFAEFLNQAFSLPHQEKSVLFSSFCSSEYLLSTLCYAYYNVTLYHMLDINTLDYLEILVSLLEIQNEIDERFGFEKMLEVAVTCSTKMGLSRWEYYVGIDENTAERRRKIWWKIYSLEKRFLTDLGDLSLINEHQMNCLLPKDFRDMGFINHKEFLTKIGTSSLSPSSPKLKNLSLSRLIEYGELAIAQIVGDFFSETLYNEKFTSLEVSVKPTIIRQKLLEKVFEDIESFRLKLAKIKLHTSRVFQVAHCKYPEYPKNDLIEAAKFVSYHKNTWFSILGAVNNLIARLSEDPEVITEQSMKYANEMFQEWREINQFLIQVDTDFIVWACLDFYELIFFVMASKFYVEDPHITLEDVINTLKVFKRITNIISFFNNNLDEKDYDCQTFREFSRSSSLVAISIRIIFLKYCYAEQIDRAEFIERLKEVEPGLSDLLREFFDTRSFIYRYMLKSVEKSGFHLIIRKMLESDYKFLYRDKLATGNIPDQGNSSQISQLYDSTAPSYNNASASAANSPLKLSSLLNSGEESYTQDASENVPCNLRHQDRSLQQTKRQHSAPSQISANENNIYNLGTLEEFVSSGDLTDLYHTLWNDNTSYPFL
Briefly: PBM E-score (8-mer binding enrichment) (E-score (-0.5 to 0.5)); higher = stronger / more preferred TF binding; most listed sequences are background and not binding sites. Conditions: protein concentration: 200 nM; construct: GST-full length. In a few lines:
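The E-score, a modified Wilcoxon-Mann-Whitney statistic, was computed by the Universal PBM Analysis Suite for every ungapped eight-base word pooled with its reverse complement. Scans behind it were normalised with masliner after bound GST-tagged yeast transcription factors were detected with fluorescent anti-GST. The proteins, at about 100-200 nM, had been applied to universal all-10-mer Agilent arrays made double-stranded by primer extension.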
Turning to GACGGGAA, the “PBM E-score” value was 0.203.
In the case of GAAGTCCC it was 0.0249.
In the case of ATGATACG it was 0.0414; in that of CTCTGGCC, 0.00278.
As to GTGACCAA, the “PBM E-score” value is -0.0611.
In the case of GCGGTACC it was 0.219; in that of GTCGTGAA, -0.31.
With TGCCAGCA the figure was -0.118; with TCACAGCA, -0.00302; with GAATTAGC, 0.0936.
In the case of GAGATCAC it was 0.0419; in that of AAAGTAAT, 0.185; in that of AGAAGTAC, -0.217.
TGCGCAAA: the “PBM E-score” value stood at 0.0675.
As to AACACACA, the “PBM E-score” value was -0.0615.
AACGGCGG: the “PBM E-score” value stood at 0.183.
With CAACAGGG the figure was 0.00221.
In the case of AGCGACCG it was 0.0621; in that of ACCTCCGC, 0.287; in that of CAGACCAA, -0.117.
In the case of CAAGGTTA it was -0.0279; in that of AATAATTG, -0.0342; in that of CAAGCACA, -0.271.
As for CTTGTTCA, the “PBM E-score” value is -0.141.
In the case of ATAACGAA it was 0.159.
For the sequence CCGTACGG, the “PBM E-score” value was determined as 0.154.
In the case of ACAGTGGG it was -0.185; in that of AAAGTATA, -0.077; in that of CATGCCCG, 0.234.
In the case of GCAAAATA it was 0.0209; in that of GCAATAGC, 0.12; in that of CGCAATGA, -0.0375.
In the case of ATCAGTAA it was 0.0366.
As to CTTCTTCA, the “PBM E-score” value was -0.179.
Take GGTCGACC: the “PBM E-score” value came out at 0.38.
With AGAATAAA the figure was 0.0145; with ACAGAGTG, -0.182.
Regarding AATGATAT, the “PBM E-score” value was determined as 0.0572.
In the case of GTGCCTAA it was -0.288; in that of GACGGCTA, -0.0347; in that of AGGGACAT, 0.14.
In the case of TAAGAATA it was -0.213.
With ATGCGTCG the figure was -0.0223; with CAGTAAAA, -0.0121.
For ATCGTGAA, the “PBM E-score” value was -0.0202.
With ACGGTATC the figure was 0.167; with CCGATAGA, 0.179; with CCTTTAGA, -0.22.
With CAACAACG, the “PBM E-score” value is -0.148.
As for CATCATAA, the “PBM E-score” value was -0.0649.
Take AACGGCCC: the “PBM E-score” value is -0.0218.
In the case of CCAGAAAA it was -0.034.
In the case of CTAATGAC it was -0.398.
With CCGTGGTA the figure was 0.174; with ACTTTTAT, -0.258.
For the sequence AATAAGAT, the “PBM E-score” value was -0.0958.
With TGGGTACA the figure was -0.0985; with TAGCGTGA, -0.257.
In the case of ATCATTTG it was 0.165; in that of GGGTAATA, 0.144; in that of CGATACGA, -0.107.
As for CAGCAAAC, the “PBM E-score” value came to 0.00115.
In the case of CCCTACTA it was -0.155; in that of GATATGTA, -0.047; in that of CATTGAAG, -0.15.
In the case of TTAGCGAA it was 0.0125.
As to CGGCTCGC, the “PBM E-score” value came to 0.253.
In the case of CAATTCCA it was 0.0797; in that of CGTTATGC, -0.156.
On to CTTACTGA, for which the “PBM E-score” value is -0.202.
In the case of ATCTACAC it was -0.105; in that of CCCGATAG, 0.0396; in that of ACTTTGTA, -0.099.
With CGGCCTAC the figure was 0.158.
With GAAGTAGA the figure was -0.00101; with ACAAGCAT, -0.0569.
Consider ATGCTGAC, for which the “PBM E-score” value was -0.148.
In the case of CGATGCTC it was 0.0562; in that of TCACTGCA, -0.0283.
With TAAACGGA the figure was 0.366; with AGCCACAG, -0.217.
In the case of CCCCTACC it was -0.106; in that of ACAAAAAG, -0.034.
With CAATATAG, the “PBM E-score” value is -0.0133.
In the case of CTGCACTA it was 0.0614; in that of AGGCATAA, -0.232.
